The text below walks through data of PMC12040169 (PLOS Biology, 2025).

This is one part of the list.

This assay relates to T1, C. trachomatis L2/434/Bu expressing GFP (CTL2-GFP).
T1 construct: L2/434/Bu GFP intracellular growth in HeLa cells
On the set-up: species or system HeLa; C. trachomatis total inclusion area by high-content imaging, normalised to DMSO. The following applies: total inclusion area; 28.5 h, 10 µM; inhibitor. Summed up:
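After bulk GFP and resorufin fluorescence reads, cells were fixed, stained with Hoechst and imaged by high-content microscopy. Inclusion area and number (GFP) stood in for chlamydial growth, nuclei count (Hoechst) for host cell viability. MICs were derived as for the bulk readout.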
Take `CCn1cc(-c2nc3cc(S(=O)(=O)NC(C)C)ccc3n2C(C)C)cn1` [CBK307311]: the “% of control remaining” value is on record as 81.3818.
Next, `Cc1ccc(C2=CCN(CC(=O)N3CCCCC3C)CC2)o1` (stereo not drawn) [CBK283556]: 108.669; `CN1C[C@H](CNC(=O)Nc2ccc(F)c(F)c2)[C@@H](c2ccc(Cl)c(Cl)c2)C1` [CBK076770]: 56.6132.
Next, `CC(=O)N[C@H](CC(N)=O)C(=O)N1CCC2(C/C=C/C[C@@H]3COCC[C@@H]3NC(=O)[C@@H](CC(C)C)NC2=O)CC1` [CBK292207]: 101.406; `CN1C(=O)CC2(C1=O)C(=O)N(CC(=O)O)c1ccc(Cl)cc12` (stereo not drawn) [CBK076107]: 115.209.
Turning to `Cc1ccc(S(=O)(=O)NCc2ccccc2)c(C)c1NS(C)(=O)=O` [CBK268555], the “% of control remaining” value is 125.585.
On to `NC1=C(N)OC(Oc2ccccc2C(F)(F)F)=NN1` [CBK018424], for which the “% of control remaining” value stood at 54.4235.
As for `COCc1nc2n(n1)CC(NC1CCCc3sccc31)CC2` (stereo not drawn) [CBK305116], the “% of control remaining” value was 78.644.
For `Cc1cc(C)c(C(=O)NC2CCN(c3ncccc3C#N)CC2)c(=O)[nH]1` [CBK306709], the “% of control remaining” value is listed as 94.9978.
For the compound `Cc1cn(CC(=O)NCC2(c3cccc(F)c3)CCCC2)nn1` [CBK281436], the “% of control remaining” value is listed as 105.248.
The figure for `Cc1ccc(C(=O)N/C(=C\c2ccc3c(c2)OCO3)C(=O)NCC(=O)O)cc1` [CBK265669] is 105.748; for `O=C(O)C(Cc1ccc(O)cc1)c1ccccc1` (stereo not drawn) [CBK012287] it is 86.7144; for `O=C(c1cncc(O)c1)N1C2CCC1CC(c1ccc(F)cc1)C2` (stereo not drawn) [CBK283764] it is 94.398.
For `CSCCCNC(=O)N1CCN(c2ccccc2)CC1` [CBK155170], the “% of control remaining” value worked out at 109.33.
The figure for `CCC(C)(C)c1ccc(S(=O)(=O)N2CCN(Cc3cc(C(=O)OC)n(C)c3)CC2)cc1` [CBK062831] is 53.6823.
Regarding `COc1ccnc(N2CCN(C(=O)c3cccc4c3NCCC4)CC2)n1` [CBK306639], the “% of control remaining” value is 86.3028.
The figure for `Cc1ccc(C(=O)/C=C(\Nc2cccc(C(F)(F)F)c2)C(=O)O)cc1` [CBK264366] is 91.4296; for `N#CCCN(C(=O)NCc1ccc2c(c1)OCO2)C1CCCCC1` [CBK156351] it is 101.698.
Next, `CC(C)OCc1ccc(C(=O)N2CCC(C(=O)O)CC2)cc1` [CBK297141]: 80.08.
The figure for `CN1N=C(c2ccc(N3CCOCC3)c(F)c2)CC1c1cnn(C)c1` (stereo not drawn) [CBK305726] is 106.63; for `COc1ccc(C2NCCS2)cc1Br` (stereo not drawn) [CBK021053] it is 105.772.
As to `CC(C)OC(=O)CN1C(=O)N2CCCN=C2c2ccccc21` [CBK284394], the “% of control remaining” value is given as 93.1166.
For the compound `CSc1nnc(CC2CCN(C(=O)Cn3nnnc3N)CC2)n1C` [CBK306520], the “% of control remaining” value was 75.1273.
As to `CC(C(=O)Nc1sc2c(c1C(=O)NCc1ccco1)CCCC2)N1C(=O)c2ccccc2C1=O` (stereo not drawn) [CBK265603], the “% of control remaining” value is on record as 101.89.
Next, `C=C(C)Cn1c(SCC(C)C)nnc1-c1cnccc1C` [CBK200075T]: 137.421.
`CCN(CC)CCn1nc2n(c1=O)-c1ccccc1SC(c1ccccc1)C2` (stereo not drawn) [CBK016064]: the “% of control remaining” value is listed as 86.6886.
Next, `CS(=O)(=O)N1CC[C@H](c2nc3ccccc3s2)C1` [CBK289374]: 88.8182.
The figure for `Cc1cc(C)nc(N2CCC(CC(=O)Nc3ccccc3CN3CCCC3)CC2)n1` [CBK286072] is 98.8909.
On to `COc1ccc(Oc2cncc(OC3CCN(CC(N)=O)C3)n2)cc1OC` (stereo not drawn) [CBK084402], for which the “% of control remaining” value was 106.439.
Regarding `CN1CCC(N2CCN(C(=O)C3(c4ccccc4)CCCC3)CC2)CC1` [CBK149096], the “% of control remaining” value was determined as 84.6914.
The figure for `N#Cc1ccccc1CSc1nnc(Cc2cccc3ccccc23)n1-c1ccccc1` [CBK266633] is 70.6545; for `C=CCn1oc(=O)n(-c2ccc(OC)cc2)c1=O` [CBK122773] it is 107.57; for `O=C1/C(=C/c2c(NCCCn3ccnc3)nc3ccccn3c2=O)SC(=S)N1C1CCCCC1` [CBK264696] it is 88.9176.
Take `CCC(CN1CCN(C)CC1)NC(=O)Cc1coc2cc(C)ccc12` (stereo not drawn) [CBK282790]: the “% of control remaining” value amounted to 85.5206.
On to `CCCNc1nc(Cl)nc(NCc2cccnc2)n1` [CBK261995], for which the “% of control remaining” value came out at 97.6796.
Next, `O=C(CN1CCOCC1)N1CCN(C(=O)c2ccc(Cl)cc2Cl)CC1` [CBK028992]: 100.199; `Cc1cc(/C=C2/NC(=O)NC2=O)c(C)n1-c1ccc(S(N)(=O)=O)cc1` [CBK264747]: 111.429.
The figure for `CNS(=O)(=O)c1cc(C(=O)N2CCN(c3ccccc3)CC2)ccc1OC` [CBK270192] is 91.75; for `N#CCSC1=CC(=O)CC(c2ccccc2)S1` (stereo not drawn) [CBK008460] it is 29.6059; for `CC(C)NC(=O)c1sc2ccccc2c1C1CCN(C(=O)COc2ccccc2)C1` (stereo not drawn) [CBK285875] it is 113.545.
On to `Cc1cc(C)n2nc(C(=O)N3CCCC34CC=CC4)cc2n1` [CBK282815], for which the “% of control remaining” value is 84.7604.
Consider `O=C(O)CNC(=O)CN1C(=O)c2cc(Cl)c(Cl)cc2C1=O` [CBK287156], for which the “% of control remaining” value worked out at 91.0321.
The figure for `O=C(O)c1cccc(-c2nc(-c3ccc(S(=O)(=O)N4CCOCC4)cc3)cs2)c1` [CBK297730] is 76.4407; for `CCc1cc(C(=O)OC)c(NC(=O)C2C3C=CC(C3)C2C(=O)O)s1` (stereo not drawn) [CBK270315] it is 88.2026; for `O=C(CSc1nnc(-c2ccncc2)n1-c1ccccc1)N/N=C/c1coc2ccccc2c1=O` [CBK262866] it is 94.0036.
Regarding `Cc1nc2cc(C(=O)NCC(C)(C)N3CCCCC3)ccc2n1C` [CBK281862], the “% of control remaining” value is 133.872.
On to `COCC1CCN(c2c(F)cc(C#N)cc2F)CC1` [CBK306244], for which the “% of control remaining” value is given as 43.2351.
Regarding `O=C1CCc2cc(S(=O)(=O)NC(c3ccccc3)c3ccccc3)cc3c2N1CCC3` [CBK294418], the “% of control remaining” value stood at 100.487.
Next, `CCn1nc(C)cc1C(=O)N1Cc2cnn(Cc3ccc(F)cc3)c2C1` [CBK306574]: 74.9919; `OCC1CCCN1c1nccnc1-c1ccoc1` (stereo not drawn) [CBK089057]: 134.021.
For `O=C(O)CC(C(=O)Nc1ccccc1)N1CCOCC1` (stereo not drawn) [CBK287182], the “% of control remaining” value amounted to 91.6546.
The figure for `O=C1Nc2ccccc2C12CC(c1ccccc1Cl)=NN2` (stereo not drawn) [CBK288004] is 64.321; for `Cc1cc(S(=O)(=O)NCCCn2ccnc2)c(C)cc1Br` [CBK269525] it is 90.6581.
Next, `Cc1ccc([N+](=O)[O-])cc1S(=O)(=O)NCC(=O)O` [CBK266234]: 123.431.
Next, `CN(C)CC(O)CN1C(=O)NC(C)(C)C1=O` (stereo not drawn) [CBK027078]: 67.6896; `Clc1ccc(-c2ccc(N3CCN(CCN4CCCC4)CC3)nc2)cc1` [CBK037623]: 102.31.
`Cc1ccc(Cl)c(OC(C)C(=O)N2CCC(CC(N)=O)CC2)c1` (stereo not drawn) [CBK305762]: the “% of control remaining” value is 101.147.
`Cn1c(NCc2ccccn2)nc2ccccc21` [CBK268544]: the “% of control remaining” value came out at 111.448.
The figure for `CCCCCNC(=O)N1CCN(CC(=O)OCC)CC1` [CBK044786] is 72.7635; for `O=C(N/N=C/C=N/NC(=O)c1ccccc1O)c1ccccc1O` [CBK261430] it is 107.448.
Take `C=C(C)Cn1c(=O)c2c(nc3[nH]c(C)c(C)n32)n(C)c1=O` [CBK288184]: the “% of control remaining” value was determined as 77.2503.
Regarding `O=C(c1sc2cc(Cl)ccc2c1Cl)N1CCN(Cc2ccc3c(c2)OCO3)CC1` [CBK074431], the “% of control remaining” value worked out at 74.5871.
For the compound `CCC(CC)n1nc(C(=O)NC2(C#N)CCSC2)cc1C` (stereo not drawn) [CBK305111], the “% of control remaining” value worked out at 41.9725.
Next, `N#Cc1ccc(-c2cnc(N)c(-c3ccccc3Cl)n2)cc1` [CBK113660]: 116.401.
For the compound `c1ccc2c(c1)CCN2c1ncnc2[nH]cnc12` [CBK291104], the “% of control remaining” value is on record as 79.1139.
As for `Nc1nc2c([C@H]3C[C@@H](O)[C@@H](CO)O3)c[nH]c2c(=O)[nH]1` [CBK201194], the “% of control remaining” value is listed as 127.004.
`O=C1c2ccccc2C(=O)N1CN(CCc1ccc(Cl)cc1)CN1C(=O)c2ccccc2C1=O` [CBK225934]: the “% of control remaining” value was 106.107.
The figure for `Cc1ccccc1-n1sc(=O)n(Cc2ccc(F)cc2)c1=O` [CBK113605] is 75.7438; for `CN(C)c1ccc(-c2nc(N(C)C)n(C)n2)cn1` [CBK306858] it is 86.7562.
Next, `Cc1ccc2[nH]c(SCC(=O)NC3CCCC3)nc2c1` [CBK057983]: 72.5324; `COc1ccc(OC)c(S(=O)(=O)N2CCCC(C(=O)O)C2)c1` (stereo not drawn) [CBK269225]: 60.8852.
Take `O=C(CN1CCC(c2ccccc2F)CC1)Nc1nccs1` [CBK283579]: the “% of control remaining” value is reported as 69.9058.
Next, `C=Cn1ncc(CN(CCCN(C)C)Cc2ccco2)c1C` [CBK283228]: 89.2453; `CS(=O)(=O)N1CC2(CCN(CC(N)=O)CC2)c2ccccc21` [CBK126678]: 81.3361; `COC(=O)c1cc(C(=O)CSc2nc(N)cc(O)n2)ccc1O` [CBK110407]: 73.3775.
The figure for `Cc1cc2c(cc1C)C(=O)CC1(CCN(C(=O)c3ccco3)CC1)O2` [CBK282819] is 81.0835.
Next, `CN1C(=O)COc2ccccc2CCCC[C@@H]2[C@H]1CCCN2CC(N)=O` [CBK292098]: 100.459.
In the case of `Cn1cc(CC(=O)NCc2ccccc2)c2ccccc21` [CBK200200], the “% of control remaining” value is 91.0889.
`O=C1CC(C(=O)Nc2ncccn2)C(c2ccccc2)O1` (stereo not drawn) [CBK265130]: the “% of control remaining” value was found to be 91.8346.
The figure for `CC(=O)Nc1ccc(S(=O)(=O)N(c2ccc(C(C)(C)C)cc2)C2CCNCC2)cc1` [CBK165062T] is 71.2743.
Next, `COc1cc(CN2CCC[C@@H]2CN2CCCC2)cc(OC)c1OC` [CBK149100]: 108.627.
